Some of the results follow.
The sequences below were run on PfSIP2 AP2 domain 1 (GST-tagged) (assay: gcPBM binding intensity (ln(normalized median fluorescence intensity)); higher = stronger DNA binding).
How it was run: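 Using an Agilent 4 × 180k array, primer-extended double-stranded 36-bp intergenic genomic probes and negative controls were exposed for 1 h to GST-fused P. falciparum DNA-binding domains expressed in E. coli. Binding was carried out in 1× PBS with 1% milk, 0.2 mg/ml BSA, 0.5% salmon testes DNA and 0.03% Triton X-100, and protein was detected with Alexa488 anti-GST antibody and a 488 nm scan. Binding intensity is the highest Masliner-normalised natural-log median intensity across replicate spots of either probe orientation.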

| Sequence | gcPBM binding intensity (ln) |
| --- | --- |
| ATTGTATTAAAATGCACACATATCAAGAGGAATTTT [CACACA_site283] | 7.19 |
| ATGTATATATTCAATTGTACATGTTATATTTACACA [XGTACX_site1125] | 6.94 |
| AAAGAATAATTAAATACACACATATTGCAGTAAAAA [CACACA_site7201] | 6.99 |
| TGTAAAATATAAAAAGTGCATTTCTTTTAATATGAT | 8.94 |
| CAATTGATATTGAAATGTACTTTTTAGATGAACCTT [XGTACX_site2354] | 6.7 |
| TTAAATAATGCCACCAGTACCCACTGAAAGAAAAAA [XGTACX_site5013] | 7.09 |
| TATATTAAAATTTACTGTACTTTTTTTATTTTAAAA [XGTACX_site4077] | 7.2 |
| AAAGATATAAATTACTGTACTAATGAAATTGGTAAA [XGTACX_site3582] | 6.61 |
| AATCCTTAAAATTAACGTACGAAATGAATTTATTAA [XGTACX_site956] | 6.86 |
| TGGAGGTCATTACACAGTACCCAGGAAATCTACGGA [XGTACX_site2004] | 6.64 |
| AAACCGTGGGAGCACACACACACACCCACCCATATA [CACACA_site332] | 6.91 |
| ACAAAACAAAACAAAAGTACACAAAATAAATAAGAT [XGTACX_site6497] | 7.32 |
| ATAATAACAAAATATTAACACACATAACATATTATA [CACACA_site8906] | 6.84 |
| TTCTGTCAATATGCTTGTACGAAATATTTCGTAATT [XGTACX_site3182] | 7.16 |
| ATAAATAAATACTAGGCACACACACCGATATATATA [CACACA_site8649] | 7.18 |
| AAAATAAACCCAGACACACTCATTAAAAAATATCAT [CACACA_site5903] | 6.8 |
| TATTAATCCTTTTGCTTGGAAACATTCAAAAGGAAG [CACACA_negctrl_site1129] | 6.86 |
| ATATATATAAAATATGGTACAGAAAAAGTCTTGTTT [XGTACX_site8868] | 7.45 |
| TAGAATTAAGTTATTGCACACAGGAAAAGTTTCATA [CACACA_site1634] | 6.83 |

| Sequence | gcPBM binding intensity (ln) |
| --- | --- |
| AATCCTTACGAACACACACACACGAATAAATAAAAA [CACACA_site6363] | 7.44 |
| ATAAATAAGAAAAATTGTACAATATTTTTTAGGATA [XGTACX_site3163] | 6.96 |
| TCTTCGAAACTATCACTCTCACAATTCATTTATTTT [TGCATGCA_negctrl_site156] | 6.94 |
| CTGTGTTTTGGTTGTACACACGCTACATTATATATT [CACACA_site5487] | 7.94 |
| TATTTTATCATTTTTTTTATGTCTTTATTTCACTTG [CACACA_negctrl_site1398] | 6.87 |
| ATATACATTAAATGAACACACATAAATAAATTACAT [CACACA_site2852] | 6.95 |
| TTTTAATTTTGTTGTTGTACAAATAACATGTGAGGG [XGTACX_site4401] | 7.92 |
| ATATATATATATATATCATTTATTTAAAAATTTTTT [TGCATGCA_negctrl_site228] | 9.4 |
| AACACATAAAAAAGGTGTACCATAAAATATACATAC [XGTACX_site4478] | 7.01 |
| ATATACACATTAATAACACACAATATGATAACAAAT [CACACA_site7670] | 7.21 |
| GTGCATAAATCATACACACACACATATATAAATATA [CACACA_site7188] | 8.61 |
| GTGTTTTTATGTGAATGTACATATTTACTATCACAC [XGTACX_site2388] | 7.37 |
| AAAGTTTTTATAAAAAAAAAAATAAATACCATATAT [XGTACX_negctrl_site113] | 7 |
| AAAAGTTTAAGTTTTCGAAAATTTACCAAAAAAAAA [CACACA_negctrl_site1644] | 6.84 |
| TTACTTTAACCTTCTCGTACTTATTTACTTTATTCT [XGTACX_site7801] | 7.36 |
| TTTCAAAGGAAATGGTGTACACAATTTTTCCTTTTT [XGTACX_site2340] | 7.09 |
| TTTTATTATTCTTCTCTCTTATATATATATATATAT [CACACA_negctrl_site646] | 9.44 |
| ATAACATAGGCAATCACACATATCATTAAGGTGTCA [CACACA_site5233] | 6.85 |
| TACTTTTATATGAATACACACAGGAATATATATATG [CACACA_site3568] | 7.06 |

| Sequence | gcPBM binding intensity (ln) |
| --- | --- |
| ACTGTGGTATAAAGTTGTACATGTTTTTATATATTT [XGTACX_site5257] | 7.33 |
| GTCTAAAAATAAAAAGTGCATTTGTTTAATATTTTG | 9.52 |
| TTAATTTTTTTTTTTTGTACTCATATGTAATTCATC [XGTACX_site3071] | 7.09 |
| TGATTGTATTAAAATGCACACATATCAAGAGGAATT [CACACA_site7985] | 7.61 |
| TATTATTATTATTATTTTAAAAGAAATAAAAATATG [XGTACX_negctrl_site119] | 7.09 |
| ATTAAAACAAATATGTGTACATAAAAATATATATAT [XGTACX_site8394] | 8.15 |
| TCGATTAAAACACAAAAATATAAATACATTGATAAA [TGCATGCA_negctrl_site523] | 6.64 |
| TTAATAAATATGTTTACACACGAAAATACATTTTTT [CACACA_site8245] | 6.79 |
| TTAAAAGTTATGGATACACACATATAAATATAGATT [CACACA_site7175] | 6.77 |
| ATTTTAATTTTTTAAGTATTATATGAATATTTATTA [TGCATGCA_negctrl_site142] | 6.68 |
| TAATTTTCATAATTTTGTACTTAACGTTTTACCTTG [XGTACX_site8048] | 6.76 |
| ACATATATATATATATATATATATATATATTCTTAA [CACACA_negctrl_site930] | 7.96 |
| CACACGCACGAACACACACACACACGCGCACATATA [CACACA_site6304] | 7.68 |
| TATTTTATTTCAAATCTTAATAATTGTAATTCTTCA [XGTACX_negctrl_site442] | 6.45 |
| TTTTAATTAGAAATCATACACACATATATATATATA [CACACA_site174] | 9.02 |
| ATTTTTAAAATAAATACATGCATATATTTATATGTT [TGCATGCA_site394] | 6.98 |
| TGTGTAATACATAATACACACATGTATATGTCGCAT [CACACA_site4757] | 6.93 |
| AAAAAAAAAGAGGCGTGTACATATATAATTTAAATT [XGTACX_site6827] | 6.84 |

Reference: the supplement of paper PMC11417369
